What all share (assay): cell-based or functional assay
Assay [1] has as its target T1, 인간 OX40L 단백질 (OX40L-his; ACROBiosystems Cat# OXL-H52Q8) (human, UniProt P23510 51-183).
T1 sequence: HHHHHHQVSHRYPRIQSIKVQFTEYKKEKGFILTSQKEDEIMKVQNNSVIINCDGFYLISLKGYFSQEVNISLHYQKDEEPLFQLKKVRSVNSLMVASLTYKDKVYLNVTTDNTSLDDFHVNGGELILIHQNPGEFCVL

The target in assay [2] is T2, 인간 TNFα (ACROBiosystems TNF-H5228) (human, UniProt P01375 in part).
The target in assay [3] is T2, 인간 TNFα (ACROBiosystems TNF-H5228). The source holds these as a separate data set.
T2 sequence (P01375 77-233 limits assumed): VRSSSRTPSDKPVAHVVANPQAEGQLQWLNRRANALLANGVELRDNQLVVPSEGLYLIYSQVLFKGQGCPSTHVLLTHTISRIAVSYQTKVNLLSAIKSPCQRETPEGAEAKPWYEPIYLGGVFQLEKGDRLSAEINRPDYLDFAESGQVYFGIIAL

Like-named read-outs stand apart in the source and are kept apart here.

B1: 이중 특이성 항체 I3F07-TNFαi LC (bispecific antibody)
heavy: QIQLAQSGAELVKPGASVKLSCKASGFTFPDYWMHWVKQRPGQGLEWIGEIDPPNGRTNYNEKFKSKATLTVDSSSNTAYMQLSRLTSEDSAVYYCARGIYYVDYWGQGTTLTVSSASTKGPSVFPLAPCSRSTSESTAALGCLVKDYFPEPVTVSWNSGALTSGVHTFPAVLQSSGLYSLSSVVTVPSSSLGTKTYTCNVDHKPSNTKVDKRV[letters of human IgG4 Fc with S228P (EU numbers) not shown]
light: not shown
Regarding B1, in assay [1], the “IC50 (nM), OX40L blockade assay” value was 0.94 nM. In addition, the “IC50 (nM), TNFα blockade assay” value in assay [2] worked out at 0.077 nM.

B2: 이중 특이성 항체 02C09-TNFαi LC (bispecific antibody)
heavy: QMQLVQSGGGLVKPGGSLRVSCAASGFTFNYAWMSWVRQAPGKGLEWVGRIKGEPDGGTTEYADSVKGRFTISRDNSKNTLYLQMNSLRAEDTAVYYCVSRRGLDVWGQGTTVTVSSASTKGPSVFPLAPCSRSTSESTAALGCLVKDYFPEPVTVSWNSGALTSGVHTFPAVLQSSGLYSLSSVVTVPSSSLGTKTYTCNVDHKPSNTKVDKRV[letters of human IgG4 Fc with S228P (EU numbers) not shown]
light: not shown
Take B2: the “IC50 (nM), TNFα blockade assay” value in assay [3] turned out to be 0.058 nM.

Values taken from patent KR20220081857A (dated 2022).
